Where a chain is given by its changes, count along the chain named. Entries after “also recorded” stand apart in the source; their conditions may differ.
B1: Ab109: anti-pro/latent myostatin antibody; CDR sequences in Table 2d (antibody)
heavy: EVQLVESGGGLVQPGGSLRLSCAASGFTFSSYGMSWVRQAPGKGLELVASFTGSGGTYYPDSVKGRFTISRDNAKNSLYLQMNSLRAEDTAVYYCARDLLIRFLEWSHYYGMDVWGQGTTVTVSSASTKGPSVFPLAPCSRSTSESTAALGCLVKDYFPEPVTVSWNSGALTSGVHTFPAVLQSSGLYSLSSVVTVPSSSLGTKTYTCNVDHKPSNTKVDKRV[human IgG4 Fc with S228P (EU numbers) left out]
light: DIVMTQSPLSLPVTPGEPASISCRSSQSLLHSSGHNFLHWYLQKPGQSPQLLIYEVSNRVSGVPDRFSGSGSGTDFTLKISRVEAEDVGVYYCMQQTQYPPTFGGGTKVEIKRTVAAPSVFIFPPSDEQLKSGTASVVCLLNNFYPREAKVQWKVDNALQSGNSQESVTEQDSKDSTYSLSSTLTLSKADYEKHKVYACEVTHQGLSSPVTKSFNRGEC
B2: Ab130: anti-pro/latent myostatin antibody; CDR sequences in Table 2d (antibody)
heavy: EVQLVESGGGLVQPGGSLRLSCAASGFTFTSYGMSWVRQAPGKGLELVASITGSGGETYYPDSVKGRFTISRDNAKNSLYLQMNSLRAEDTAVYYCARDLLVRFLEWSHYYGMDVWGQGTTVTVSSASTKGPSVFPLAPCSRSTSESTAALGCLVKDYFPEPVTVSWNSGALTSGVHTFPAVLQSSGLYSLSSVVTVPSSSLGTKTYTCNVDHKPSNTKVDKRV[human IgG4 Fc with S228P (EU numbers) left out]
light: B1 light with V56T, V60A, S61P, V63I, M94Q, Q96A, Y99F, P101R, T102P

Legend:
[1] = DIO mice on high fat diet treated with liraglutide and antibody (Example 3); type: in vivo, mouse; conditions: for body weight: high fat diet mice, liraglutide daily, antibody weekly for four weeks, FIG. 11A-D; for inguinal and perigonadal fat pad fat mass: in combination with liraglutide; for gastrocnemius mass / change in lean mass / fat mass: with liraglutide; for gastrocnemius mass: antibody 20 mg/kg, FIG. 11F; for change in lean mass: FIG. 11E; for fat mass: FIG. 11G
Protocol: Caloric restriction causes loss of both fat and lean mass; inhibiting myostatin maintains lean mass during weight loss. […] Changes in body composition were assessed by qNMR readout for fat mass and lean mass; gastrocnemius weight; and inguinal and perigonadal fat pad weight.
Ten-week-old male mice were fed formula D12492 ad lib, a high-calorie diet comprised of 60% fat, and remained on this diet throughout the study. The antibodies were dosed weekly and liraglutide was dosed daily. Body composition and body weight were measured by qNMR prior to dosing, at 2 weeks, and at the end of the dosing period body weight. Gastrocnemius muscles were removed, and their weights were measured after the animals were terminated.

[2] = high fat diet mice treated with metformin and antibody (Example 4); type: in vivo, mouse; conditions: for fat mass gain: 45% high fat diet, FIG. 12A
Protocol: Male C57/BL6 mice were fed a 60% high fat diet beginning at six weeks of age. At nineteen weeks of age (day 0), the mice were switched to a 45% high fat diet for 63 days. […] These mice were further divided into groups that received either 50 mg/kg of metformin or no metformin (Table 22a).
Body weight and food intake were monitored three times per week throughout the study. On days 7, 35, 49, and 63, body composition was determined by qNMR, and glucose, ketones, and insulin were measured. At the end of the study on day 63, body composition was determined by qNMR; glucose, ketones, and insulin were measured, gastrocnemius muscle, whole liver, epididymal, and subcutaneous adipose tissue was collected and weighed.
Male C57/BL6 mice (n=8/group) were fed a 60% HFD until week 18, at which time they are switched to a 45% HFD for 7 days. At day 7, animals in group 3-6 were treated with 50 mg/kg/day metformin, given orally throughout the remainder of the study.
Body weight was measured three times per week; lean mass and fat mass were measured by qNMR on days 7, 35, 49, 63, and 77; serum glucose was also measured on days 7, 35, 49, 63, and 77; serum insulin was measured on days 49, 63, and 77. A glucose tolerance test (GTT) and an insulin tolerance test (ITT) was administered between day 56 and day 63.

murine pro-myostatin = murine pro-myostatin (Mus musculus, UniProt O08689); assay: Biacore 8k SPR binding affinity, murine pro-myostatin
Text: (§1) The Biacore™ 8k SPR system was utilized to evaluate the binding affinity of myostatin antibodies to biotinylated human, murine, and cyno pro-myostatin. Biotin CAPture kit and sensor chips (Cytiva) were utilized in these experiments to immobilize the various antigens, followed by flowing a range of concentrations of each of the test antibodies.

[3] = pharmacokinetics of Ab109 in Cynomolgus macaques (Example 10); type: in vivo
Protocol: A preliminary analysis of the pharmacokinetics of subcutaneous or intravenous dosing of Ab109 was determined in non-human primates following a single dose of Ab109 in five groups, each comprising three Cynomolgus macaques. Groups 1-4 were dosed subcutaneously with 0.3, 3, 10 or 30 mg/kg antibody, respectively. […] Samples were taken at day −1 (pre-dose), 1-hour and 8-hour post-dose, and at days 1, 3, 4, 5, 7, 10, 14, 17, 21, 28, 35, 42, 56 and 63 post-dose. An interim pharmacokinetic analysis was performed on samples up to 28 days post-dose.

human pro-myostatin = human pro-myostatin (Homo sapiens, UniProt O14793); assay: Biacore 8k SPR binding affinity, human pro-myostatin
Text: as §1

free latent myostatin = target: T1, free latent myostatin (Mus musculus, UniProt O08689); assay: serum free latent myostatin assay in mice; type: in vivo; conditions: 2 mg/kg and 20 mg/kg doses; FIG. 17
T1 construct: from tissue; host or cells: mouse serum
Text: Serum clearance: As used herein, the term “serum clearance” or “clearance” refers to a relative pharmacokinetic/pharmacodynamic behavior pertaining to changes in serum concentrations (e.g., circulating levels) of an analyte (e.g., target protein or protein complex) over time. When the analyte being measured accumulates in the serum, it is said to have slow clearance. By contrast, when the analyte being measured is removed (“cleared”) rapidly from the serum, it is said to have fast clearance. Serum clearance in vivo may occur via multiple mechanisms, including, for example, targeted degradation, Fc-mediated internalization, etc. For example, serum clearance of circulating myostatin may be measured with an assay for determining binding of an antibody to free myostatin in serum (circulating myostatin that is not bound by the antibody). Such an assay may involve immobilizing a biotinylated capture antibody known to bind pro and latent myostatin, before adding a sample comprising myostatin to test the ability of the antibody to bind to the free myostatin and adding a detection antibody with a detectable marker.
In another embodiment, a pharmacodynamic assay, can be performed by measuring the binding of the antibodies to serum free latent myostatin (i.e., circulating latent myostatin that is not bound by the antibody). […]

[4] = semaglutide plus Ab109 or Ab141 in diet-induced obesity mice (Example 5); type: in vivo, mouse; conditions: with semaglutide 0.040 mg/kg daily; FIGS. 13A-B
Protocol: Male C57/BL6 mice were a high-fat diet containing 60% fat then switched to a diet containing 45% fat. […] Body weight and body composition determined by qNMR were recorded at days 7, 14, and 21 after dosing. Gastrocnemius weight, inguinal, and perigonadal fat pad weights were recorded at the end of the study. Liver and terminal blood were collected to measure the levels of glucose and insulin.

Ka (murine pro-myostatin)	Kd (1/s) (murine pro-myostatin)	Ka (human pro-myostatin)	Kd (1/s) (human pro-myostatin)	Molecule	body weight [1]	inguinal and perigonadal fat pad fat mass [1]	gastrocnemius mass [1]	change in lean mass [1]	fat mass [1]	fat mass gain ([2]; combination of Ab109 and metformin 50 mg/kg)	fat mass gain ([2]; monotherapy)	lean mass ([2]; with or without metformin, FIG. 12B)	concentration of antibody in the serum ([3]; single dose 0.3, 3, 10 or 30 mg/kg s.c. or 10 mg/kg i.v., up to 28 days, FIG. 24)	apparent bioavailability ([3]; subcutaneous vs intravenous 10 mg/kg, AUC up to day 28 post-dose, interim analysis)	free latent myostatin levels in the serum (free latent myostatin)	fat mass loss (subcutaneous and epididymal adipose tissue weight) [4]
6.81e+06 M⁻¹ s⁻¹	0.00134 s⁻¹	6.62e+06 M⁻¹ s⁻¹	0.000196 s⁻¹	B1	lost more body weight compared to those treated with Ab2; also recorded: attenuated the increase in body weight compared to the Ig control in the presence of liraglutide; also recorded: lost slightly less weight than those treated with liraglutide and an IgG control	reduced the fat mass in the subcutaneous inguinal fat pad and reduced the fat mass in the visceral perigonadal fat pad	more effective at increasing gastrocnemius mass than Ab2	lean mass increased; also recorded: greater increases in lean mass compared to Ab2	decreased fat mass to a greater extent than Ab2	stopped the fat mass gain	Neither metformin alone nor Ab109 alone showed this effect	gained more lean muscle mass regardless of whether they received metformin	dose proportional	greater than 85%	reduce free latent myostatin levels in the serum	increased fat mass loss as compared to Ab109 or Ab141 alone
–	–	–	–	B2	lost more body weight compared to those treated with Ab2; also recorded: attenuated the increase in body weight compared to liraglutide alone; also recorded: lost slightly less weight than those treated with liraglutide and an IgG control	reduced the fat mass in the subcutaneous inguinal fat pad and reduced the fat mass in the visceral perigonadal fat pad	more effective at increasing gastrocnemius mass than Ab2	lean mass increased; also recorded: greater increases in lean mass compared to Ab2	decreased fat mass to a greater extent than Ab2	–	–	–	–	–	–	–

Source: patent US20260209325A1, “SELECTIVE AND POTENT INHIBITORY ANTIBODIES OF MYOSTATIN ACTIVATION” (SCHOLAR ROCK, INC., priority 2022, published 2026)
